Test results as given in the supplement of paper PMC10369915.
The list shows a part of the results. No stated cut-off is given here; in the data, active = 3.2 or more and inactive = the rest. Most of these values are background signal.

Experiments:
Assay in all cases: enrichment score (SH2-bound / input frequency) (ratio); bacterial display of known human phosphotyrosine sites (pTyr-Var adds point mutants) read by sequencing; higher = stronger binding; tyrosines were phosphorylated by kinases first
Conditions in all cases: peptide library: pTyr-Var
SHP2 C-SH2 domain E139D = biological target: SHP2 C-SH2 domain E139D
[1] = biological target: SHP2 C-SH2 domain wild-type
SHP2 N-SH2 domain L43F = biological target: SHP2 N-SH2 domain L43F
SHP2 N-SH2 domain T42A = biological target: SHP2 N-SH2 domain T42A
SHP2 N-SH2 domain T52S = biological target: SHP2 N-SH2 domain T52S
[2] = biological target: SHP2 N-SH2 domain wild-type

Measured: enrichment score
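Further: displayed peptides selected on beads carrying the immobilized SH2 domain, with library peptides lacking any tyrosine serving as negative controls.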

QNTVDYYDLYG [PTPN11_Y62_G60V]
inactive: SHP2 C-SH2 domain E139D 0.778 | [1] 0.671 | SHP2 N-SH2 domain L43F 1.19 | SHP2 N-SH2 domain T42A 1.07 | SHP2 N-SH2 domain T52S 0.943 | [2] 0.941

QRPYVYYYSYL [PTEN_Y176_R173P]
inactive: SHP2 C-SH2 domain E139D 1.35 | [1] 1.47 | SHP2 N-SH2 domain L43F 0.906 | SHP2 N-SH2 domain T42A 0.983 | SHP2 N-SH2 domain T52S 0.78 | [2] 1.87

NHFKIYNPCAE [PTEN_Y68_L70P_YF]
inactive: SHP2 C-SH2 domain E139D 0.852 | [1] 1.05 | SHP2 N-SH2 domain L43F 0.682 | SHP2 N-SH2 domain T42A 0.668 | SHP2 N-SH2 domain T52S 0.709 | [2] 0.707

NHYKRYNLCAE [PTEN_Y68_I67R]
inactive: SHP2 C-SH2 domain E139D 0.746 | [1] 0.772 | SHP2 N-SH2 domain L43F 0.644 | SHP2 N-SH2 domain T42A 0.76 | SHP2 N-SH2 domain T52S 0.662 | [2] 0.941

DLDFTYIYPNI [PTEN_Y27_L25F]
inactive: SHP2 C-SH2 domain E139D 1.1 | [1] 1.01 | SHP2 N-SH2 domain L43F 0.825 | SHP2 N-SH2 domain T42A 0.803 | SHP2 N-SH2 domain T52S 1.03 | [2] 1.13

QNTGDYCDLYG [PTPN11_Y62_Y63C]
inactive: SHP2 C-SH2 domain E139D 0.745 | [1] 1.1 | SHP2 N-SH2 domain L43F 0.948 | SHP2 N-SH2 domain T42A 0.865 | SHP2 N-SH2 domain T52S 0.952 | [2] 1.17

PSQRRYVFFFS [PTEN_Y174_YF]
inactive: SHP2 C-SH2 domain E139D 1.02 | [1] 1.01 | SHP2 N-SH2 domain L43F 1.4 | SHP2 N-SH2 domain T42A 1.13 | SHP2 N-SH2 domain T52S 1.47 | [2] 0.723

QNTGDYYDLYG [PTPN11_Y62]
inactive: SHP2 C-SH2 domain E139D 0.53 | [1] 0.993 | SHP2 N-SH2 domain L43F 0.631 | SHP2 N-SH2 domain T42A 0.524 | SHP2 N-SH2 domain T52S 0.635 | [2] 0.784

NTGGFYDLFGG [PTPN11_Y63_D61G_YF]
inactive: SHP2 C-SH2 domain E139D 1.11 | [1] 1.16 | SHP2 N-SH2 domain L43F 1.07 | SHP2 N-SH2 domain T42A 1.08 | SHP2 N-SH2 domain T52S 1.25 | [2] 1.11

KNKNRCKNILP [PTPN11_Y279_Y279C]
inactive: SHP2 C-SH2 domain E139D 0.613 | [1] 0.791 | SHP2 N-SH2 domain L43F 0.649 | SHP2 N-SH2 domain T42A 0.474 | SHP2 N-SH2 domain T52S 0.63 | [2] 0.651

QFRFIYMAVQH [PTPN11_Y515_YF]
inactive: SHP2 C-SH2 domain E139D 1.69 | [1] 1.78 | SHP2 N-SH2 domain L43F 1.63 | SHP2 N-SH2 domain T42A 1.51 | SHP2 N-SH2 domain T52S 1.57 | [2] 1.63

NHYKIYNPCAE [PTEN_Y68_L70P]
inactive: SHP2 C-SH2 domain E139D 0.861 | [1] 0.708 | SHP2 N-SH2 domain L43F 0.617 | SHP2 N-SH2 domain T42A 0.64 | SHP2 N-SH2 domain T52S 0.671 | [2] 0.747

QTEAQYRFIYM [PTPN11_Y511]
inactive: SHP2 C-SH2 domain E139D 0.661 | [1] 0.65 | SHP2 N-SH2 domain L43F 0.672 | SHP2 N-SH2 domain T42A 0.497 | SHP2 N-SH2 domain T52S 0.412 | [2] 0.637

RLEGVYGNNID [PTEN_Y46_R47G]
inactive: SHP2 C-SH2 domain E139D 0.582 | [1] 0.53 | SHP2 N-SH2 domain L43F 0.53 | SHP2 N-SH2 domain T42A 0.645 | SHP2 N-SH2 domain T52S 0.443 | [2] 0.55

PRQRRYVYYYS [PTEN_Y174_S170R]
inactive: SHP2 C-SH2 domain E139D 0.244 | [1] 0.37 | SHP2 N-SH2 domain L43F 0.243 | SHP2 N-SH2 domain T42A 0.279 | SHP2 N-SH2 domain T52S 0.233 | [2] 0.342

QRPFVYFFSFL [PTEN_Y176_R173P_YF]
inactive: SHP2 C-SH2 domain E139D 2.17 | [1] 2.52 | SHP2 N-SH2 domain L43F 1.95 | SHP2 N-SH2 domain T42A 2.41 | SHP2 N-SH2 domain T52S 2.89 | [2] 2.3

SETDDYAEIIV [PTK2_Y397_D402V]
inactive: SHP2 C-SH2 domain E139D 0.534 | [1] 0.61 | SHP2 N-SH2 domain L43F 0.504 | SHP2 N-SH2 domain T42A 0.412 | SHP2 N-SH2 domain T52S 0.578 | [2] 0.586

RRNVFYFSFLL [PTEN_Y177_Y174N_YF]
inactive: SHP2 C-SH2 domain E139D 0.861 | [1] 0.694 | SHP2 N-SH2 domain L43F 0.825 | SHP2 N-SH2 domain T42A 0.879 | SHP2 N-SH2 domain T52S 0.885 | [2] 0.468

EPVSDYINANV [PTPN11_Y304_I309V]
inactive: SHP2 C-SH2 domain E139D 0.643 | [1] 0.842 | SHP2 N-SH2 domain L43F 0.89 | SHP2 N-SH2 domain T42A 0.754 | SHP2 N-SH2 domain T52S 0.785 | [2] 0.874
